# Measured values: the supplement of paper PMC8728848
# This is one part of the list.
# Columns and labels:
# Assay in all cases: glycan array binding signal (z-score within array); higher = stronger binding
# Conditions in all cases: glycan notation: IUPAC condensed, linker removed
# [1] = biological target: Neu5Ac(a2-6)Gal(b1-4)GlcNAc(b1-2)Man(a1-3)[Neu5Ac(a2-3)Gal(b1-4)GlcNAc(b1-2)Man(a1-6)]Man(b1-4)GlcNAc(b1-4)GlcNAc
# Method in brief: (§1)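 The binding signal is a Z-score computed within each array. Data were drawn from 3228 arrays in the Consortium for Functional Glycomics database, restricted to those with a known protein sequence. Scores were averaged over arrays of the same protein sequence at different concentrations or buffers, and over linkers, and negative values can be taken as non-binding.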
# [2] = biological target: Neu5Ac(a2-6)Gal(b1-4)GlcNAc(b1-2)Man(a1-3)[Neu5Ac(a2-6)Gal(b1-4)GlcNAc(b1-2)Man(a1-6)]Man(b1-4)GlcNAc(b1-4)GlcNAc
# Method in brief: as §1
# [3] = biological target: Neu5Ac(a2-6)Gal(b1-4)GlcNAc(b1-2)Man(a1-3)[Neu5Ac(a2-6)Gal(b1-4)GlcNAc(b1-2)Man(a1-6)]Man(b1-4)GlcNAc(b1-4)[Fuc(a1-6)]GlcNAc
# Method in brief: as §1
# [4] = biological target: Neu5Ac(a2-6)Gal(b1-4)GlcNAc(b1-2)Man(a1-6)Man(b1-4)GlcNAc(b1-4)GlcNAc
# Method in brief: as §1
# [5] = biological target: Neu5Ac(a2-6)Gal(b1-4)GlcNAc(b1-2)Man(a1-6)[Gal(b1-4)GlcNAc(b1-2)Man(a1-3)]Man(b1-4)GlcNAc(b1-4)GlcNAc
# Method in brief: as §1
# [6] = biological target: Neu5Ac(a2-6)Gal(b1-4)GlcNAc(b1-2)Man(a1-6)[GlcNAc(b1-2)Man(a1-3)]Man(b1-4)GlcNAc(b1-4)GlcNAc
# Method in brief: as §1
# [7] = biological target: Neu5Ac(a2-6)Gal(b1-4)GlcNAc(b1-2)Man(a1-6)[Man(a1-3)]Man(b1-4)GlcNAc(b1-4)GlcNAc
# Method in brief: as §1
# [8] = biological target: Neu5Ac(a2-6)Gal(b1-4)GlcNAc(b1-2)[Neu5Ac(a2-6)Gal(b1-4)GlcNAc(b1-4)]Man(a1-3)[GlcNAc(b1-4)][Neu5Ac(a2-6)Gal(b1-4)GlcNAc(b1-2)[Neu5Ac(a2-6)Gal(b1-4)GlcNAc(b1-6)]Man(a1-6)]Man(b1-4)GlcNAc(b1-4)GlcNAc
# Method in brief: as §1
# [9] = biological target: Neu5Ac(a2-6)Gal(b1-4)GlcNAc(b1-2)[Neu5Ac(a2-6)Gal(b1-4)GlcNAc(b1-4)]Man(a1-3)[GlcNAc(b1-4)][Neu5Ac(a2-6)Gal(b1-4)GlcNAc(b1-4)Man(a1-6)]Man(b1-4)GlcNAc(b1-4)GlcNAc
# Method in brief: as §1
# [10] = biological target: Neu5Ac(a2-6)Gal(b1-4)GlcNAc(b1-2)[Neu5Ac(a2-6)Gal(b1-4)GlcNAc(b1-6)]Man(a1-6)[Neu5Ac(a2-6)Gal(b1-4)GlcNAc(b1-2)Man(a1-3)][GlcNAc(b1-4)]Man(b1-4)GlcNAc(b1-4)GlcNAc
# Method in brief: as §1
# [11] = biological target: Neu5Ac(a2-6)Gal(b1-4)GlcNAc(b1-3)Gal(b1-3)GlcNAc
# Method in brief: as §1
# [12] = biological target: Neu5Ac(a2-6)Gal(b1-4)GlcNAc(b1-3)Gal(b1-4)GlcNAc
# Method in brief: as §1
# [13] = biological target: Neu5Ac(a2-6)Gal(b1-4)GlcNAc(b1-3)Gal(b1-4)GlcNAc(b1-2)Man(a1-3)[Neu5Ac(a2-6)Gal(b1-4)GlcNAc(b1-3)Gal(b1-4)GlcNAc(b1-2)Man(a1-6)]GalNAc
# Method in brief: as §1
# [14] = biological target: Neu5Ac(a2-6)Gal(b1-4)GlcNAc(b1-3)Gal(b1-4)GlcNAc(b1-3)Gal(b1-4)GlcNAc
# Method in brief: as §1
# [15] = biological target: Neu5Ac(a2-6)Gal(b1-4)GlcNAc(b1-3)Gal(b1-4)GlcNAc(b1-3)Gal(b1-4)GlcNAc(b1-2)Man(a1-3)[Neu5Ac(a2-6)Gal(b1-4)GlcNAc(b1-3)Gal(b1-4)GlcNAc(b1-3)Gal(b1-4)GlcNAc(b1-2)Man(a1-6)]GalNAc
# Method in brief: as §1
# [16] = biological target: Neu5Ac(a2-6)Gal(b1-4)GlcNAc(b1-3)Gal(b1-4)GlcNAc(b1-3)GalNAc
# Method in brief: as §1
# [17] = biological target: Neu5Ac(a2-6)Gal(b1-4)GlcNAc(b1-3)Gal(b1-4)GlcNAc(b1-3)[Neu5Ac(a2-6)Gal(b1-4)GlcNAc(b1-3)Gal(b1-4)GlcNAc(b1-6)]GalNAc
# Method in brief: as §1
# [18] = biological target: Neu5Ac(a2-6)Gal(b1-4)GlcNAc(b1-3)Gal(b1-4)GlcNAc(b1-6)[Gal(b1-3)]GalNAc
# Method in brief: as §1
# [19] = biological target: Neu5Ac(a2-6)Gal(b1-4)GlcNAc(b1-3)Gal(b1-4)[Fuc(a1-3)]GlcNAc(b1-3)Gal(b1-4)[Fuc(a1-3)]GlcNAc
# Method in brief: as §1
# [20] = biological target: Neu5Ac(a2-6)Gal(b1-4)GlcNAc(b1-3)GalNAc
# Method in brief: as §1
# [21] = biological target: Neu5Ac(a2-6)Gal(b1-4)GlcNAc(b1-3)[Neu5Ac(a2-6)Gal(b1-4)GlcNAc(b1-6)]GalNAc
# Method in brief: as §1
# [22] = biological target: Neu5Ac(a2-6)Gal(b1-4)GlcNAc(b1-6)GalNAc
# Method in brief: as §1
# [23] = biological target: Neu5Ac(a2-6)Gal(b1-4)GlcNAc(b1-6)[Gal(b1-3)GlcNAc(b1-3)]Gal(b1-4)Glc
# Method in brief: as §1
# [24] = biological target: Neu5Ac(a2-6)Gal(b1-4)GlcNAc(b1-6)[Gal(b1-3)]GalNAc
# Method in brief: as §1
# [25] = biological target: Neu5Ac(a2-6)Gal(b1-4)GlcNAc6S
# Method in brief: as §1
# [26] = biological target: Neu5Ac(a2-6)GalNAc
# Method in brief: as §1
# [27] = biological target: Neu5Ac(a2-6)GalNAc(b1-4)GlcNAc
# Method in brief: as §1
# [28] = biological target: Neu5Ac(a2-6)GalNAc(b1-4)GlcNAc6S
# Method in brief: as §1
# [29] = biological target: Neu5Ac(a2-6)GlcNAc(b1-4)GlcNAc
# Method in brief: as §1
# [30] = biological target: Neu5Ac(a2-6)GlcNAc(b1-4)GlcNAc(b1-4)GlcNAc
# Method in brief: as §1
binder,measurement,setting,value
GS13686A-pdi-553-26-553 (Parabacteroides distasonis) (protein) NENPDKPTDDVNYNMNEPRLASTLRGGLIIEGNVEQRLKPLQIDFYSQMTVDGGGWGTKNYIQDDEWNNLVWEEYLKQIASINIVIRSLTEKDKDAYANTIAFARIWRVYVHTLAADKFGPMPFPAYEIVEANPPYKSLKDIYDEYFRELDAAINGFNDSAQPIFSDAGIDLIYKNDVSKWKRFANSLRLRLAVRLTEVDQEKCIAEANAAISSPAGLISDKADNAYMPPKADGSWGQDYNYTMFQITWSGPICMSKSVEKLVTNIGGVAWPQGVVNQTSGVAVSSVHPEKVDPRAPKIFQPGIENGDWKGLVYGPKAEEANTGIYQSKQCAELGFIIKDGYPYKSRPYDLFLSEEVHFLKAELYARGFIAGDAKSEYEAGVRASFATWGVTSEVDDYLTSTEKNEAGTSARYDDQQGAGNTALEKIITQKYIAGIPDLAQEGWNDKRRLNLPRLDVAVYRDQAVYNNNDKDILKSANFIKRMRYPTKESLINATEYEKGKSMLGGKGDIVSTPLWWDKNSNYCTSSK,glycan array binding signal (z-score),[1],-0.389
same,glycan array binding signal (z-score),[2],-0.23
same,glycan array binding signal (z-score),[3],0.391
same,glycan array binding signal (z-score),[4],-0.085
same,glycan array binding signal (z-score),[5],0.126
same,glycan array binding signal (z-score),[6],0.032
same,glycan array binding signal (z-score),[7],-0.072
same,glycan array binding signal (z-score),[8],-0.216
same,glycan array binding signal (z-score),[9],-0.066
same,glycan array binding signal (z-score),[10],0.625
same,glycan array binding signal (z-score),[11],-0.181
same,glycan array binding signal (z-score),[12],-0.315
same,glycan array binding signal (z-score),[13],-0.126
same,glycan array binding signal (z-score),[14],0.058
same,glycan array binding signal (z-score),[15],-0.058
same,glycan array binding signal (z-score),[16],-0.222
same,glycan array binding signal (z-score),[17],-0.162
same,glycan array binding signal (z-score),[18],-0.234
same,glycan array binding signal (z-score),[19],-0.092
same,glycan array binding signal (z-score),[20],-0.218
same,glycan array binding signal (z-score),[21],0.115
same,glycan array binding signal (z-score),[22],-0.164
same,glycan array binding signal (z-score),[23],-0.013
same,glycan array binding signal (z-score),[24],-0.227
same,glycan array binding signal (z-score),[25],-0.181
same,glycan array binding signal (z-score),[26],-0.309
same,glycan array binding signal (z-score),[27],-0.419
same,glycan array binding signal (z-score),[28],0.236
same,glycan array binding signal (z-score),[29],-0.236
same,glycan array binding signal (z-score),[30],-0.11
